Experimental data reported in PubChem BioAssay AID485281 (National Center for Advancing Translational Sciences (NCATS), 2010).
The campaign covered roughly 350,000 compounds. About 260 (0.074%) were called active. The shares of active, inactive and inconclusive entries below differ from those in the screen. The call rests on the fitted dose curve; in most records, active means well fitted inhibition curve with a large enough effect; inconclusive means small, poorly fitted or top-dose-only effect; inactive means no such curve, though single readings can be large or run the other way. Potencies beside an inconclusive call are fits to weak or partial responses and may not hold up.

molecular target: Ferritin light chain (Equus caballus) (UniProt P02791); experiment: qHTS Assay for Identification of Novel General Anesthetics; details: apoferritin/1-aminoanthracene competitive binding, fluorescence; activity change, negative = displacement: at 77.5 µM (top of the series); further: nearly all actives have a fitted effect of over 20% in size
In short: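 10 uM apoferritin + 50% sat. 1-AMA, PBS; cpd 10 min RT; Ex380/Em535 endpoint; normalized to free probe vs complex; 4-param Hill fit; propofol titration as pos. ctrl.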
On the % scale 0 is the no-effect control and ±100 the full control effect; potency means the concentration at half of the fitted maximal effect; tags describe the fitted curve by direction and shape.

UniProt P02791, sequence (P02791 whole entry, looked up): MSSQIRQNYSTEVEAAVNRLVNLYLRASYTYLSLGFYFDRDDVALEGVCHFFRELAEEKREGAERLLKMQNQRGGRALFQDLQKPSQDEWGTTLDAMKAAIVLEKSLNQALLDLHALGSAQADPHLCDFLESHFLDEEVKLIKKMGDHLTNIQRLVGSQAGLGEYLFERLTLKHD

Potency, inconclusive:
CC1(C)Cc2nc3sc4c(OCc5ccccc5)ncnc4c3cc2CO1 6.31 µM [inhibitor, partial curve]
Cc1cc(C)n(Cc2ccccc2Cl)n1 15.8 µM [inhibitor, partial curve]
Cc1ccc(CNC(=O)c2nnn(-c3cccc(C)c3)c2N)cc1 5.62 µM [inhibitor, partial curve]
C=C1CCN(c2ccc(C(=O)NCc3ccc(C)cc3)cc2[N+](=O)[O-])CC1 17.8 µM [inhibitor, partial curve]
Cc1noc(C)c1C(=O)OCC(=O)C12CC3CC(CC(C3)C1)C2 3.16 µM [inhibitor, partial curve]
CC1=CC(C)(C)N2C(=O)C3(C(C#N)=C(N)Oc4cc(O)ccc43)c3c(C)c(C)cc1c32 (stereo not drawn) 11.2 µM [inhibitor, partial curve]
O=C(NC(=S)Nc1ccc(N2CCOCC2)c(Cl)c1)c1cccs1 31.6 µM [inhibitor, partial curve]
CC(C)c1ccccc1OCCCCCNCCO 35.5 µM [inhibitor, partial curve]
COc1ccc(/C=C(/NC(=O)c2ccccc2)C(=O)Nc2cccc(C(=O)O)c2)cc1 20 µM [inhibitor, partial curve]
CC(NC(=O)COC(=O)c1ccco1)c1ccccc1 (stereo not drawn) 31.6 µM [inhibitor, partial curve]
CCOc1ccc(OCc2ccc(C(=O)N3CCCC(C)C3)cc2)cc1 (stereo not drawn) 7.08 µM [inhibitor, full curve]
CCC(C)c1ccc(OCC(=O)Nc2cccc(-c3nc4ncccc4o3)c2)cc1 (stereo not drawn) 12.6 µM [inhibitor, partial curve]
CCCCCCCCCCCCCCCCn1cc[n+](Cc2ccccc2)c1C 28.2 µM [inhibitor, partial curve, poor fit]
Cc1nc(NCCc2ccccc2F)c(C#N)c(C)c1[N+](=O)[O-] 25.1 µM [inhibitor, partial curve]

Activity change, negative = displacement, inactive:
CC(C)CCC[C@@H](C)[C@H]1CC[C@H]2[C@@H]3CC=C4CC(O)CC[C@]4(C)[C@H]3CC[C@]12C (stereo partly drawn) -1.04%
Cc1ccc(CN2CCN(C(=O)c3ccco3)CC2)cc1 3.11%
COc1ccc(C(=O)Oc2cccc(/C=N/NC(N)=S)c2)cc1 -10.5%
Cc1cccc(NC(=O)CN2C(=O)N/C(=C/c3cc(C)n(C)c3C)C2=O)c1 -18.7%
